# Data published in PubChem BioAssay (Tox21).
# Values joined by “and” are separate entries in the source; they are usually repeats but may differ in a detail not shown here. Identical values can stand only once. This list was built around the results that the source calls inconclusive (neither active nor inactive); the mix of calls is not that of the screen. A potency beside an inconclusive call is a rough fit, not a confirmed value. Some compounds were tested as several samples or in several runs, with calls that do not always agree. Active and inactive are the calls of the source. The call rests on the fitted dose curve; in most records, active means well fitted activation curve with a large enough effect in the repeat runs; inconclusive means weak or mixed curves; inactive means flat fitted curve, though single readings scatter.
# Assay: A CellTox Green Cytotoxicity Assay to monitor cytotoxicity in HEK293 cells - 32 hour (AID 1224881); further: nearly all actives have a fitted effect of over 40% in size
# Conditions: CellTox Green fluorescence; series mostly up to 76.8 µM
# Source text: National Center for Advancing Translational Sciences [NCATS]
# NIH Chemical Genomics Center [NCGC]
# U.S. Environmental Protection Agency [EPA]
# National Institutes of Environmental Health Sciences [NIEHS]
# National Toxicology Program [NTP]
# Cell-based models are critical for drug discovery. Determining the natural cytotoxic effects resulting from test compounds is an essential research activity. A CellTox Green Cytotoxicity Assay to monitor cytotoxicity in real time of continues cell culture during 40 hours of the compound treatment was used to screen Tox21 10K library compounds in Hek293 cells. CellTox Green Cytotoxicity Assay is a nonlytic, homogeneous, biofluorescent method to measure cytotoxicity in cell culture after experimental manipulation. The assay system uses a proprietary asymmetric cyanine dye that is excluded from viable cells but preferentially stains the dead cell's DNA. […] Viable cells produce no appreciable increases in fluorescence. Therefore, the fluorescence signal produced by the binding interaction with dead cell DNA is proportional to cytotoxicity.
# The mixture of Hek293 cell suspension and reagents were dispensed at 600cells/6 ul/well in 1536-well tissue culture treated black solid bottom plates using a Multidrop dispenser. After the assay plates were incubated at a 37 C/5% CO2 incubator for 5 hours, 23 nL of compounds dissolved in DMSO, positive and negative controls was transferred to the assay plate by a pintool work station. The plates were incubated at 37 C for 40 hours. The fluorescence intensity were measured at 0h, 8h, 16h, 24h, 32h and 40h time points using ViewLux plate reader during compound treatment.
# Potency means the concentration at half of the fitted maximal effect; tags describe the fitted curve by direction and shape.
row,Compound,Potency
1,Oc1ccc2ccc3cccc4ccc1c2c34,"inconclusive: 61.6 µM [activator, partial curve, poor fit]"
2,C=CCN1C[C@H](C)N([C@H](c2ccc(C(=O)N(CC)CC)cc2)c2cccc(OC)c2)C[C@H]1C,"inconclusive: 26.8 µM [activator, single point]"
3,OC(c1ccc(Cl)cc1)(c1ccc(Cl)cc1)C(Cl)(Cl)Cl,"inconclusive: 43.6 µM [activator, partial curve, poor fit]"
4,CCCCCCCCCCn1cc[n+](C)c1,"inconclusive: 2.77 µM [activator, partial curve, poor fit] and inconclusive: 21.8 µM [activator, partial curve]"
5,c1ccc(NNc2ccccc2)cc1,"inconclusive: 39.3 µM [activator, partial curve, poor fit] and active: 24.5 µM"
6,CN(C)C(=S)S,active: 8.88 µM and active: 3.07 µM and active: 6.92 µM
7,CC(C)OC(=O)C(O)(c1ccc(Cl)cc1)c1ccc(Cl)cc1,active: 54.9 µM
8,CN=CNc1ccc(C)cc1C,inactive
9,Nc1ccc(Cl)cc1N,"inconclusive: 57.1 µM [activator, single point] and active: 21.9 µM"
10,CCOC(=O)c1cn2nc(OP(=S)(OCC)OCC)cc2nc1C,inactive
11,C[C@H]1CC[C@@H]2[C@@H](C)[C@H]3[C@H](C[C@H]4[C@@H]5CC=C6CC(O[C@@H]7O[C@H](CO)[C@H](O)[C@H](O[C@@H]8O[C@H](CO)[C@@H](O)[C@H](O)[C@H]8O)[C@H]7O[C@H]7O[C@@H](C)[C@H](O)[C@@H](O)[C@H]7O)CC[C@]6(C)[C@H]5CC[C@]34C)N2C1 (stereo not given in full),active: 5.06 µM
12,COP(=O)(OC)OC(Br)C(Cl)(Cl)Br (stereo not given),"inconclusive: 55 µM [activator, single point]"
13,O=C(CCl)c1ccc(Cl)cc1Cl,"inconclusive: 54.7 µM [activator, single point]"
14,c1ccc2c(c1)-c1cccc3cccc-2c13,"inconclusive: 43.6 µM [activator, partial curve]"
15,CCC[CH2][Sn]([Cl])([CH2]CCC)[CH2]CCC,active: 618 nM and active: 776 nM
16,O=S1(=O)OCC2C(CO1)C1(Cl)C(Cl)=C(Cl)C2(Cl)C1(Cl)Cl (stereo not given),"inconclusive: 49 µM [activator, partial curve]"
17,CCCOCC(=Nc1ccc(Cl)cc1C(F)(F)F)n1ccnc1,active: 48.9 µM
18,O=S1OCC2C(CO1)C1(Cl)C(Cl)=C(Cl)C2(Cl)C1(Cl)Cl (stereo not given),active: 49 µM and active: 54.9 µM
19,O=C(CCl)CCl,"inconclusive: 22.7 µM [activator, single point] and inconclusive: 21.9 µM [activator, partial curve]"
20,CN1CCC(O)(c2ccc(F)cc2)C(C(=O)c2ccc(F)cc2)C1 (stereo not given),"inconclusive: 26.8 µM [activator, single point]"

row,Compound,Potency
1,CCOP(=S)(OCC)OC(Cl)C(Cl)(Cl)Cl (stereo not given),"inconclusive: 61.6 µM [activator, single point]"
2,CC(C)(c1ccccc1)c1ccc(O)cc1,active: 27.3 µM and active: 24.5 µM
3,CC(C)(C)CC(C)(C)c1ccc(O)cc1,active: 12.3 µM and active: 19 µM
4,CC(C)[C@@H](Nc1ccc(C(F)(F)F)cc1Cl)C(=O)OC(C#N)c1cccc(Oc2ccccc2)c1 (stereo not given in full),inactive
5,CCC(C)(C)c1ccc(O)cc1,"active: 49.5 µM and active: 43.6 µM and inconclusive: 26.8 µM [activator, single point]"
6,FC(F)C(F)(F)OCC(Cn1cncn1)c1ccc(Cl)cc1Cl (stereo not given),"inconclusive: 54.6 µM [activator, single point]"
7,CCOC(=O)CC(=O)CCl,"inconclusive: 54.9 µM [activator, single point]"
8,Nc1ccccc1-c1ccccc1,"inconclusive: 13.7 µM [activator, partial curve, poor fit]"
9,CCOC(=O)C(O)(c1ccc(Cl)cc1)c1ccc(Cl)cc1,"inconclusive: 54.9 µM [activator, single point]"
10,O=c1[nH]c2ccccc2n1C1CCN(CCCC(c2ccc(F)cc2)c2ccc(F)cc2)CC1,active: 49 µM
11,O=[N+]([O-])/C=C/c1ccccc1,"inconclusive: 22.2 µM [activator, full curve, poor fit] and inconclusive: 19.5 µM [activator, single point]"
12,CC(C)Oc1cc(-n2nc(C(C)(C)C)oc2=O)c(Cl)cc1Cl,active: 0.608 µM
13,Oc1cc(Cl)ccc1Oc1ccc(Cl)cc1Cl,"inconclusive: 26.8 µM [activator, single point]"
14,O=[N+]([O-])c1ccc(Cl)c(Cl)c1Cl,"inconclusive: 24.2 µM [activator, partial curve]"
15,CCCN(CC)CC1COC2(CCC(C(C)(C)C)CC2)O1 (stereo not given),"inconclusive: 49 µM [activator, partial curve, poor fit]"
16,c1ccc2c(c1)Sc1ccccc1N2CC1CN2CCC1CC2 (stereo not given),"inconclusive: 26.8 µM [activator, single point]"
17,c1csc(-c2ccc(-c3cccs3)s2)c1,"inconclusive: 7.76 µM [activator, full curve, poor fit]"
18,Brc1cccc(-c2ccccc2)c1,active: 49.3 µM
19,Sc1ccccc1,"inconclusive: 49.3 µM [activator, single point]"
20,Brc1ccc(Oc2ccccc2)cc1,active: 50.2 µM and active: 21.9 µM
